Assay results from paper PMC4336329 (PLoS ONE, 2015).
About 14,000 (4.5%) of roughly 310,000 compounds showed an effect of 50% or more. Effects have a minus sign here. Some of the results follow.
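Further: peak tail current of the secondary pulse compared with the same well before compound.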

Each compound was assayed against human ether-à-go-go-related gene (hERG) potassium channel (human, UniProt Q12809) (assay: primary screen, population patch clamp on CHO cells stably expressing hERG).
Sequence of human ether-à-go-go-related gene (hERG) potassium channel (Q12809 whole entry, looked up): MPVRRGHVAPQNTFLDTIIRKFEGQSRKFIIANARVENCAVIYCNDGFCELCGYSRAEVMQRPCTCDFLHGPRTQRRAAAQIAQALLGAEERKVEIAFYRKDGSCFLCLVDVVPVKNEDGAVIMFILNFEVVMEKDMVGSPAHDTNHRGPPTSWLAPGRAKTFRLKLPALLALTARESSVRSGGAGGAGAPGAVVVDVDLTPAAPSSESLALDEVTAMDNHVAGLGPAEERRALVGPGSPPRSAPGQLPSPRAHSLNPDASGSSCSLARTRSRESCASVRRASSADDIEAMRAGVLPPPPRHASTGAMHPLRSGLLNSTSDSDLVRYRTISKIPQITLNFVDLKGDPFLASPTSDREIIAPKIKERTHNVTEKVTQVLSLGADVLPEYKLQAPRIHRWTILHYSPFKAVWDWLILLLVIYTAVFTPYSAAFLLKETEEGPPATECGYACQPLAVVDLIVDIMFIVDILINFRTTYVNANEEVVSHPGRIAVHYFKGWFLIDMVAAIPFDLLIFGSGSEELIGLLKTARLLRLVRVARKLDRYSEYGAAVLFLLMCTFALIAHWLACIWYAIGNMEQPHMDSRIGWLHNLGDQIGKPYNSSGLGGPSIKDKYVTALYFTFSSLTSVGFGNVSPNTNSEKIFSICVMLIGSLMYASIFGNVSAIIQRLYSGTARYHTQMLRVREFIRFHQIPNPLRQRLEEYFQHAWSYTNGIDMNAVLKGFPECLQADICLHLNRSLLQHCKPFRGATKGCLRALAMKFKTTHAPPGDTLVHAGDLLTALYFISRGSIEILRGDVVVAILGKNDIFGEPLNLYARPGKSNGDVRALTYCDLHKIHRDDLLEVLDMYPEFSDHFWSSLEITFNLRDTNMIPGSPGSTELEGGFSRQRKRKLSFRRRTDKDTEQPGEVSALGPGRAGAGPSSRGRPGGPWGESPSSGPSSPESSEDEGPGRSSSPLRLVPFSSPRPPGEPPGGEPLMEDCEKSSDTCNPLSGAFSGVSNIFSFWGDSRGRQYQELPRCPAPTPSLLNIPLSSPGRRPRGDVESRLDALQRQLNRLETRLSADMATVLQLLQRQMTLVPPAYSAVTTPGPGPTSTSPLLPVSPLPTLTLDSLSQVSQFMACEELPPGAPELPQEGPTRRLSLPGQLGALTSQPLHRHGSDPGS
In the case of `COC(=O)c1ccc(COc2ccc(C=O)cc2OC)o1`, the “hERG current change (%, negative = inhibition) at 10uM” value is reported as 4.14%. In the case of `CCN(CC)C(=O)Cn1cc(S(=O)(=O)Cc2cccc([N+](=O)[O-])c2)c2ccccc21`, the “hERG current change (%, negative = inhibition) at 10uM” value is reported as -26.7%. In the case of `CN(C)c1nc2ccccc2n(C)c1=O`, the “hERG current change (%, negative = inhibition) at 10uM” value is reported as 10.5%. `COc1ccc(Cl)cc1C(=O)NCC(C)C` was tested, and the “hERG current change (%, negative = inhibition) at 10uM” value was 3.05%. `COc1ccc(-n2nc3c(N4CCC(C(=O)NCCc5ccccc5C)CC4)nnc(C)c3c2C)cc1` was tested, and the “hERG current change (%, negative = inhibition) at 10uM” value was 22.5%. In the case of `CC(=O)NC(Cc1ccc(F)cc1)C(=O)N1CCN(C(=O)NCc2ccccc2)CC1` (stereo not drawn), the “hERG current change (%, negative = inhibition) at 10uM” value is reported as -5.22%. With `COc1c(Cl)cccc1-c1cn2ccccc2n1` the “hERG current change (%, negative = inhibition) at 10uM” value was 1.82%. For `Cc1ccc(Cl)cc1N1CCN(CCN)CC1`, the “hERG current change (%, negative = inhibition) at 10uM” value was -0.374%. In the case of `CC1=CC(=NOC(=O)/C=C/c2ccccc2)C=C(C)C1=O`, the “hERG current change (%, negative = inhibition) at 10uM” value is reported as 16.3%. With `COC(=O)Cn1ccc(-c2ccc(Cl)cc2)c(C#N)c1=O` the “hERG current change (%, negative = inhibition) at 10uM” value was -16.3%. In the case of `COc1ccc(-c2sc(Nc3ccccc3)n[n+]2-c2ccc(F)cc2)cc1Br.[Cl-]`, the “hERG current change (%, negative = inhibition) at 10uM” value is reported as 4.03%. `CCCOC(=O)/C(C(N)=NCc1ccccc1)=C(\O)OCCC` was tested, and the “hERG current change (%, negative = inhibition) at 10uM” value was -7.96%. For `CC(C)(/C=N/O)/[N+]([O-])=C/c1ccccc1`, the “hERG current change (%, negative = inhibition) at 10uM” value was 20.1%. In the case of `O=C(O)CCCC(=O)Nc1ccn(-c2ccccc2)n1`, the “hERG current change (%, negative = inhibition) at 10uM” value is reported as -0.862%. In the case of `COC(=O)c1ccccc1N/C=C1\CCc2c(c(C)nn2-c2ccccn2)C1=O`, the “hERG current change (%, negative = inhibition) at 10uM” value is reported as 3.14%. `CN(C)c1nc(N(C)C)nc(N2CCCCC2)n1` was tested, and the “hERG current change (%, negative = inhibition) at 10uM” value was -8.37%. `O=C(NCC1CC1)c1ccc(Nc2nc3ccc(Br)cc3[nH]2)cc1` was tested, and the “hERG current change (%, negative = inhibition) at 10uM” value was -0.782%. For `CC(C)CN(C(=O)COC(=O)CCSc1ccc(F)cc1)c1c(N)n(Cc2ccccc2)c(=O)[nH]c1=O`, the “hERG current change (%, negative = inhibition) at 10uM” value was 10.1%. With `COc1ccc(S(=O)(=O)N2CCC(C(=O)Nc3ccc(S(=O)(=O)N4CCCC4)cc3)CC2)cc1OC` the “hERG current change (%, negative = inhibition) at 10uM” value was 8.38%. `O=C(CSc1nnc(CNc2cccc(Cl)c2)o1)OC1CCCCC1` was tested, and the “hERG current change (%, negative = inhibition) at 10uM” value was -3.59%. In the case of `CCCCSC(=S)N(C)C1CCS(=O)(=O)C1` (stereo not drawn), the “hERG current change (%, negative = inhibition) at 10uM” value is reported as 2.89%. In the case of `CCOC(=O)c1oc2ccccc2c1NC(=O)c1ccco1`, the “hERG current change (%, negative = inhibition) at 10uM” value is reported as 4.4%. For `Cc1ccc(C2C(C#N)=C(N)OC3=C2C(=O)CC(C)(C)C3)s1` (stereo not drawn), the “hERG current change (%, negative = inhibition) at 10uM” value was -4.59%. In the case of `COc1ccc(CNC(=O)Cn2ccc3cc(S(=O)(=O)N4CCCC4)ccc32)cc1OC`, the “hERG current change (%, negative = inhibition) at 10uM” value is reported as -4.61%. `COc1cccc(-c2nc(C(=O)NCC3CCCO3)cc3c2[nH]c2ccccc23)c1` (stereo not drawn) was tested, and the “hERG current change (%, negative = inhibition) at 10uM” value was -26.4%. `Cc1ccc(S(=O)(=O)NC(C)(C)CSc2ccccn2)cc1` was tested, and the “hERG current change (%, negative = inhibition) at 10uM” value was -14.3%. With `O=C1CC2(CCCC2)Oc2ccccc21` the “hERG current change (%, negative = inhibition) at 10uM” value was 3.39%. With `CCOC(=O)c1[nH]c2ccccc2c1NC(=O)c1ccc(S(=O)(=O)N2CCCCC2)cc1` the “hERG current change (%, negative = inhibition) at 10uM” value was 3.48%. For `COc1ccc(-c2cc(C(=O)NC3CCCCC3)no2)cc1OC`, the “hERG current change (%, negative = inhibition) at 10uM” value was 14.1%. `O=C(Nc1ccc(F)cc1)c1cccc(N2C(=O)c3ccccc3C2=O)c1` was tested, and the “hERG current change (%, negative = inhibition) at 10uM” value was 5.7%. `COc1ccc(C(=O)C2CCCN(Cc3cnc(C)s3)C2)cc1OC` (stereo not drawn) was tested, and the “hERG current change (%, negative = inhibition) at 10uM” value was -5.12%. `Fc1ccc(C2CC(c3ccc(F)cc3)n3ncnc3N2)cc1` (stereo not drawn) was tested, and the “hERG current change (%, negative = inhibition) at 10uM” value was -60%. `Cc1cccc(NC(=O)c2nc[nH]c2C(=O)N[C@@H](C)c2ccccc2)c1` was tested, and the “hERG current change (%, negative = inhibition) at 10uM” value was 10.8%. In the case of `CCn1nc(C(=O)N2CCN(Cc3nc4ccccc4s3)CC2)c2ccccc2c1=O`, the “hERG current change (%, negative = inhibition) at 10uM” value is reported as -68.9%. For `CC1CN(S(=O)(=O)c2ccc(C(=O)N3c4ccccc4CC3C)cc2)CC(C)O1` (stereo not drawn), the “hERG current change (%, negative = inhibition) at 10uM” value was 3.21%. With `Cc1ccc(N2CC(C(=O)OCC(=O)Nc3ccccc3F)CC2=O)cc1` (stereo not drawn) the “hERG current change (%, negative = inhibition) at 10uM” value was -0.51%. `COc1ccc(CN2CCNC(=O)C2CC(=O)O)cc1OC` (stereo not drawn) was tested, and the “hERG current change (%, negative = inhibition) at 10uM” value was 20.6%. For `Cc1ccc(-n2nc3cc(Cl)c(NC(=O)c4ccco4)cc3n2)cc1`, the “hERG current change (%, negative = inhibition) at 10uM” value was 3.69%. In the case of `CCCCCC1CC(CC(C)C(=O)Nc2nncs2)C(=O)O1` (stereo not drawn), the “hERG current change (%, negative = inhibition) at 10uM” value is reported as -44.1%. For `O=P1(c2ccccc2)C=Cn2c1cc1c2CCCC1` (stereo not drawn), the “hERG current change (%, negative = inhibition) at 10uM” value was -9.21%. `Nc1ccccc1C(=O)NNC(=O)C(=O)/C=C(\O)c1ccccc1` was tested, and the “hERG current change (%, negative = inhibition) at 10uM” value was -6.64%. For `CC(=O)Nc1ccc(S(=O)(=O)NCCNc2ccccc2[N+](=O)[O-])cc1`, the “hERG current change (%, negative = inhibition) at 10uM” value was -25.6%. `Cc1ccc(-c2nc(C#N)c(NCCCn3ccnc3)o2)cc1` was tested, and the “hERG current change (%, negative = inhibition) at 10uM” value was -21.9%. `Cc1ccc(C)c(SCC(=O)N(C)CC(=O)Nc2ccc(N3CCOCC3)cc2)c1` was tested, and the “hERG current change (%, negative = inhibition) at 10uM” value was -5.12%. With `CCS(=O)(=O)n1nc(-c2ccc(Cl)cc2)nc1SC` the “hERG current change (%, negative = inhibition) at 10uM” value was 21.9%. In the case of `CCN1C(=O)C(CC(=O)Nc2ccc(F)cc2)N(Cc2cccs2)C1=S` (stereo not drawn), the “hERG current change (%, negative = inhibition) at 10uM” value is reported as -48.9%. `CC(=O)c1cccc(NC(=S)Nc2cccc3ccccc23)c1` was tested, and the “hERG current change (%, negative = inhibition) at 10uM” value was 13.7%. For `COC(=O)c1cc(Sc2c(Cl)cccc2Cl)ccn1`, the “hERG current change (%, negative = inhibition) at 10uM” value was -36.5%. `c1ccc(-c2nc3cnccn3c2Nc2ccc3c(c2)OCCO3)cc1` was tested, and the “hERG current change (%, negative = inhibition) at 10uM” value was 4.22%. With `CCOc1ccccc1C(=O)n1nc2nc(C)cc(C)c2c1N` the “hERG current change (%, negative = inhibition) at 10uM” value was -1.43%. In the case of `C[C@H]1CC[C@H]2C(=O)N3[C@H](c4cccc(N5CCCC5=O)c4)[C@@H](C)CC[C@H]3C(=O)N2[C@@H]1c1cccc(N2CCCC2=O)c1`, the “hERG current change (%, negative = inhibition) at 10uM” value is reported as -56.3%. In the case of `Cc1occc1C(=O)N1CCCC(N2CCN(c3cccc(C(F)(F)F)c3)CC2)C1` (stereo not drawn), the “hERG current change (%, negative = inhibition) at 10uM” value is reported as -38.9%. For `CC(/C=C/c1ccccc1F)=N\NC(=O)C(C)C`, the “hERG current change (%, negative = inhibition) at 10uM” value was -4.64%. With `Cc1cc2c(c(=O)n1Cc1ccco1)C(c1ccccc1)C(C#N)=C(N)O2` (stereo not drawn) the “hERG current change (%, negative = inhibition) at 10uM” value was -0.879%. With `Cc1cc(CNC(=O)CCc2nnc(CCCCc3ccccc3)o2)nn1C` the “hERG current change (%, negative = inhibition) at 10uM” value was 38.1%. In the case of `O=C1CSC(c2ccccc2)N1Cc1ccccc1` (stereo not drawn), the “hERG current change (%, negative = inhibition) at 10uM” value is reported as 13.2%. For `COc1ccc(C(=O)Nc2cc(C)c(NC(=O)c3ccccn3)cn2)cc1`, the “hERG current change (%, negative = inhibition) at 10uM” value was 1.13%.
